From PMC4336329 (PLoS ONE, 2015)
About 2,200 (0.71%) of roughly 310,000 compounds showed an effect of 50% or more. Effects have a minus sign here. The list shows a part of the results.

Each molecule was assayed against human ether-à-go-go-related gene (hERG) potassium channel (human, UniProt Q12809) (assay: primary screen, population patch clamp on CHO cells stably expressing hERG).
human ether-à-go-go-related gene (hERG) potassium channel, sequence (Q12809 whole entry, looked up): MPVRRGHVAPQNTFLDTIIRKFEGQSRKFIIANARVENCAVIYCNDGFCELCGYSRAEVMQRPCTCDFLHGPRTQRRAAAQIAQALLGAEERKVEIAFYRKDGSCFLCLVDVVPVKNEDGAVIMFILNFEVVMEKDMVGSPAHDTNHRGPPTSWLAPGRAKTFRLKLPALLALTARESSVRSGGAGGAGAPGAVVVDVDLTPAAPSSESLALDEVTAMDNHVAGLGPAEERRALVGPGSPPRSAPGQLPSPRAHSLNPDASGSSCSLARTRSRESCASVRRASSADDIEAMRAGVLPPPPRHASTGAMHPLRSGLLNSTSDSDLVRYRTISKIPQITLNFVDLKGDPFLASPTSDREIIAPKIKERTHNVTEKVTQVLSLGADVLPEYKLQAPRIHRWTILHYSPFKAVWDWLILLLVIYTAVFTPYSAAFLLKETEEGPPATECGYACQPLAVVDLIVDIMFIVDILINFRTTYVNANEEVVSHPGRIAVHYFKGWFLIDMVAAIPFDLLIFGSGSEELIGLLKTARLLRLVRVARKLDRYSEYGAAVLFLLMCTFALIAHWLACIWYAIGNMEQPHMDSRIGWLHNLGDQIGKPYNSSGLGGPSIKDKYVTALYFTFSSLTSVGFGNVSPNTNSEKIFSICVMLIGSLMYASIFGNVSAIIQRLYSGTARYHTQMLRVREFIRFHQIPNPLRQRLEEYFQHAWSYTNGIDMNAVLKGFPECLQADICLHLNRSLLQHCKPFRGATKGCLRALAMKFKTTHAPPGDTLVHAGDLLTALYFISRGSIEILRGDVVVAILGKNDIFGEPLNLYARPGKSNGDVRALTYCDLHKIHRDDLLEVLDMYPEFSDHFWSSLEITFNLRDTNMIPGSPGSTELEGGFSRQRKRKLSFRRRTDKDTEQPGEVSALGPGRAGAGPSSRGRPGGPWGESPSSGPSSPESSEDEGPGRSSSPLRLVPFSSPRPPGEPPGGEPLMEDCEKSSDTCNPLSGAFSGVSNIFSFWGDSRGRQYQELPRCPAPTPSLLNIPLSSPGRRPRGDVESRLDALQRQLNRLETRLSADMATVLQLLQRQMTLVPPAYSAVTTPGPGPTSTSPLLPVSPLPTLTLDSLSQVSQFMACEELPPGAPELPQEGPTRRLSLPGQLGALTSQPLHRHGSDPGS

| SMILES | hERG current change (%, negative = inhibition) at 1uM [%] |
| --- | --- |
| COc1ccc(-c2nc3c(c(=O)n(C)c(=O)n3C)n2CC2CC(c3ccccc3)=NO2)cc1OC (centres unmarked) | 8.48 |
| O=C(Nc1ccccc1)N(C1=NCCC1)c1ccc(OC(F)F)cc1 | 1.35 |
| Cc1ccc(C)c(CN2C(=O)C3CCCN3c3ccc(S(=O)(=O)N4CCOCC4)cc32)c1 (centres unmarked) | 16 |
| Cc1ccccc1S(=O)(=O)Cc1ccc(C(=O)NC2CC2)o1 | 16.2 |
| COc1ccc2[nH]cc(CCNS(=O)(=O)c3ccc(NC(C)=O)cc3)c2c1 | 10.1 |
| CNC(=S)N1CCn2cccc2C1c1cc(OC)c(OC)c(OC)c1 (centres unmarked) | 11.1 |
| CCCOc1ccc(-c2nc(N3CCN(CC)CC3)c3ccccc3n2)cc1 | 11.2 |
| CCCCn1c(=O)[nH]c(=O)c2c1nc(-c1ccc(C(F)(F)F)cc1)n2C | 2.7 |
| Cc1cccc(C(=O)NNC(=O)c2ccccc2[N+](=O)[O-])c1 | 10.7 |
| CC(=O)OCc1cc(=O)n(C)c(=O)n1C | 16.3 |
| CCOc1ccc2nc(N3CCCC(C(=O)NCCCN4CCCCC4)C3)sc2c1 (centres unmarked) | -11.7 |
| Cc1cc(C)cc(NC(=O)CCNC(=O)c2ccc([N+](=O)[O-])cc2)c1 | 4.54 |
| Cc1ccnn2cc3c(=O)n(C)c(=O)n(C)c3c12 | 14.4 |
| CCCC(=O)N(CCN1CCOCC1)c1nc2c(OC)ccc(C)c2s1.Cl | -6.69 |
| Cc1cccc2sc(NC(=O)c3cc(S(=O)(=O)N(C)C)ccc3N3CCCC3)nc12 | 20.3 |
| O=C(COC(=O)CC1c2ccccc2CCN1S(=O)(=O)c1ccccc1)Nc1ccccc1 (centres unmarked) | 5.34 |
| Nc1ccccc1Oc1ncc(C(F)(F)F)cc1Cl | 20.4 |
| COc1ccc(CCn2c(-n3nc(C)cc3C)nc3c2c(=O)[nH]c(=O)n3C)cc1 | 6.22 |
| COc1ccc(C(CCN2CCCC2)c2c(O)cc(OC)cc2OC)cc1 (centres unmarked) | -21.1 |
| O=C(COc1cccc(-n2cnnn2)c1)NC1CCCCC1 | 12.3 |
| O=C(CCCN1C(=O)c2ccccc2C1=O)NCC1CCCO1 (centres unmarked) | 9.69 |
| CCOC(=O)[C@@H]1[C@H]2COc3ccc(Br)cc3[C@@H]2N2C(=O)N(c3ccccc3)C(=O)[C@]12C | 6.78 |

| SMILES | hERG current change (%, negative = inhibition) at 1uM [%] |
| --- | --- |
| COc1ccc(CN2C(=O)COc3ccccc32)cc1 | 13.2 |
| Cc1ccc(NC(=O)CCCc2nc3ccccc3c(=O)[nH]2)c(Cl)c1 | 4.55 |
| O=C(NC1CC2CCCC(C1)N2C(=S)NCCc1ccccc1)C1CC1 (centres unmarked) | 8.33 |
| COc1cc(NC(=O)C(Cc2ccccc2)n2cccc2)cc(OC)c1 (centres unmarked) | 0.297 |
| O=C(Nc1ccc(-c2nc3ccccc3[nH]2)cc1)c1ccco1 | 6.74 |
| CC1CCc2c(C(=O)NCCCN3CCOCC3)csc2C1 (centres unmarked) | 3.41 |
| Cn1c(=O)[nH]c(=O)c2c1nc(SCC(=O)O)n2CCCc1ccccc1 | 12.8 |
| COc1ccc(NC(=O)CN(C)C(=O)/C=C/c2ccc(S(=O)(=O)N3CCCCCC3)cc2)cc1 | 20 |
| O=C(N1CCCC1)C12CCC3CC(CC(C3)C1)C2 | 12.9 |
| Cc1cc(OCCCC(=O)NNC(=O)c2ccncc2)ccc1Cl | 0.533 |
| CC(/C=C/c1ccco1)=N/NC(=O)C1COc2ccccc2O1 (centres unmarked) | 11.4 |
| CC1CC(C)CN(CC(O)COC2CC(C)CC(C)(C)C2)C1.Cl (centres unmarked) | -4.44 |
| CCCN(CCC(=O)Nc1ccccc1F)CC1CC1 | 4.67 |
| CCOc1ccc(S(=O)(=O)N2CCCCC2)cc1NC(=O)CN1C(=O)NC(C)(c2ccc(C)cc2)C1=O (centres unmarked) | -2 |
| CN(CC(=O)Nc1ccc(F)cc1)C(=O)COC(=O)c1cccc(N(C)C)c1 | 3.72 |
| Cc1cnc(NC(=O)COc2ccccc2Cl)s1 | 4.3 |
| N#CCC(=O)Nc1ccc(C(=O)NNC(=O)CCN2CCN(c3ccccc3)CC2)cc1 | -7.69 |
| O=C(CSc1nc2ccccc2n1CC(=O)N1CCOCC1)N1CCCC1 | 16.9 |
| CCOC(=O)c1ccccc1NC(=O)CSc1ccccc1 | -6.19 |
| CCCCn1c(N)c(N(CCOC)C(=O)COC(=O)c2cc(CC)c(C)s2)c(=O)[nH]c1=O | 17.9 |
| Cc1ccccc1N1C(=O)C2CCCN2C1=S (centres unmarked) | 11.1 |
| COCCn1c(=S)[nH]c2cc(C(=O)NCC3CCCO3)ccc2c1=O (centres unmarked) | -0.861 |
